Drawing on the supplement of paper PMC6609913, this text covers normalised cell viability for 33 molecules.

Counter-ions that a name gives are not always drawn. ± gives the standard deviation of the averaged measurements. Whole data set: some 1,300 compounds, median “normalised cell viability” near 1, cut for the lowest 2% near 0.15. The list shows a part of the results.

The subject of this assay is V-C8 + BRCA2 (BRCA2-proficient hamster cells). In words: normalised cell viability (fraction of plate median); higher = more viable cells (less toxic). To be noted: 5 µM. The gist of the method: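 BRCA2-deficient hamster V-C8 cells and BRCA2-restored V-C8 cells were plated in 96-well plates, and library drugs were added 24 h later at 5 μM in 100 μl medium. Exposure lasted 3 days in screen 1 and 6 days in screen 2, next to solvent-only wells. Viability was then read by resazurin assay, median-plate normalised and averaged across triplicate wells.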

On to `CCN(CC)CCOC(=O)C1(c2ccc([N+](=O)[O-])cc2)CCCC1` [Nitrocaramiphen hydrochloride], for which the normalised cell viability reads like this: (treatment time: 3 days) 1.06 ± 0.024; (treatment time: 6 days) 1.038 ± 0.0056.

As for `Nc1ccc(O)c(C(=O)O)c1` [Mesalamine], the normalised cell viability came out at 1.03 ± 0.044 (treatment time: 3 days) and 0.922 ± 0.28 (treatment time: 6 days).

Take `Cc1cc(C(C)(C)CC(C)(C)C)ccc1OCCOCC[N+](C)(C)Cc1ccccc1` [Methyl benzethonium chloride]: the normalised cell viability was 0.954 ± 0.036 (treatment time: 3 days) and 0.915 ± 0.052 (treatment time: 6 days).

Take `Cc1cc(NC(=O)C2=C(O)c3ccccc3S(=O)(=O)N2C)no1` [Isoxicam]: the normalised cell viability (treatment time: 3 days) came out at 1.11 ± 0.065 and the normalised cell viability (treatment time: 6 days) was determined as 1.05 ± 0.068.

Take `CN(C)CCCN1c2ccccc2CCc2ccc(Cl)cc21` [Clomipramine hydrochloride]: the normalised cell viability was found to be 0.911 ± 0.017 (treatment time: 3 days) and 0.97 ± 0.024 (treatment time: 6 days).

Take `CO[C@@]1(NC(=O)C2SC(=C(C(N)=O)C(=O)O)S2)C(=O)N2C(C(=O)O)=C(CSc3nnnn3C)CS[C@@H]21` (stereo partly specified) [Cefotetan]: the normalised cell viability amounted to 0.907 ± 0.075 (treatment time: 3 days) and 0.966 ± 0.065 (treatment time: 6 days).

On to `COC(=O)C1=C(C)NC(C)=C(C(=O)OC)C1c1ccccc1[N+](=O)[O-]` [Nifedipine], for which the normalised cell viability (treatment time: 3 days) was determined as 0.997 ± 0.023 and the normalised cell viability (treatment time: 6 days) is 0.981 ± 0.042.

With `CC(C)NCC(O)c1ccc(NS(C)(=O)=O)cc1` (stereo unspecified) [Sotalol hydrochloride], the normalised cell viability reads like this: (treatment time: 3 days) 0.971 ± 0.029; (treatment time: 6 days) 1.02 ± 0.024.

As for `C#C[C@]1(O)CC[C@H]2[C@@H]3CCc4cc(OC)ccc4[C@H]3CC[C@@]21C` [Ethynylestradiol 3-methyl ether], the normalised cell viability runs as follows: (treatment time: 3 days) 0.955 ± 0.033; (treatment time: 6 days) 0.942 ± 0.077.

For `CN(CCOc1ccc(NS(C)(=O)=O)cc1)CCc1ccc(NS(C)(=O)=O)cc1` [Dofetilide], the normalised cell viability is, setting by setting: (treatment time: 3 days) 1.02 ± 0.016; (treatment time: 6 days) 1.05 ± 0.054.

For the molecule `CC(=O)N1CCN(c2ccc(OCC3COC(Cn4ccnc4)(c4ccc(Cl)cc4Cl)O3)cc2)CC1` (stereo unspecified) [Ketoconazole], the normalised cell viability reads like this: (treatment time: 3 days) 0.945 ± 0.039; (treatment time: 6 days) 1.07 ± 0.05.

For the molecule `CCN(CC)CCCC(C)Nc1c2ccc(Cl)cc2nc2ccc(OC)cc12` (stereo unspecified) [Quinacrine dihydrochloride dihydrate], the normalised cell viability by setting is: (treatment time: 3 days) 0.133 ± 0.0038; (treatment time: 6 days) 0.107 ± 0.0083.

With `CCCCCCCCCCCCCCCC[N+](C)(C)CCN(Cc1ccc(OC)cc1)c1ncccn1` [Thonzonium bromide], the normalised cell viability (treatment time: 3 days) was 0.787 ± 0.094 and the normalised cell viability (treatment time: 6 days) was 0.74 ± 0.19.

Regarding `COC(=O)[C@H]1[C@H]2C[C@@H]3c4[nH]c5cc(OC)ccc5c4CCN3C[C@H]2C[C@@H](OC(=O)c2cc(OC)c(OC)c(OC)c2)[C@@H]1OC` [Reserpine], the normalised cell viability is, setting by setting: (treatment time: 3 days) 0.82 ± 0.083; (treatment time: 6 days) 0.928 ± 0.078.

For `CC(C)C[C@H](NC(=O)[C@@H](O)[C@H](N)Cc1ccccc1)C(=O)O` [Ubenimex], the normalised cell viability is, setting by setting: (treatment time: 3 days) 1.01 ± 0.013; (treatment time: 6 days) 1.01 ± 0.013.

`CNC(=C[N+](=O)[O-])NCCSCc1ccc(CN(C)C)o1` [Ranitidine hydrochloride]: the normalised cell viability was determined as 0.992 ± 0.018 (treatment time: 3 days) and 1.02 ± 0.037 (treatment time: 6 days).

`CCOC(=O)Nc1ccc2c(c1)N(C(=O)CCN1CCOCC1)c1ccccc1S2` [Moricizine hydrochloride]: the normalised cell viability reads like this: (treatment time: 3 days) 1.09 ± 0.036; (treatment time: 6 days) 1.16 ± 0.12.

Regarding `CCC(=O)[C@@]1(C)[C@H](C)C[C@H]2[C@@H]3CCC4=CC(=O)C=C[C@]4(C)[C@H]3[C@@H](O)C[C@@]21C` [Rimexolone], the normalised cell viability reads like this: (treatment time: 3 days) 1.04 ± 0.054; (treatment time: 6 days) 0.86 ± 0.18.

On to `CCc1cc(C(N)=S)ccn1` [Ethionamide], for which the normalised cell viability is, setting by setting: (treatment time: 3 days) 0.997 ± 0.021; (treatment time: 6 days) 0.945 ± 0.11.

Take `CC(=O)Nc1c(I)c(NC(C)=O)c(I)c(C(=O)O)c1I` [Diatrizoic acid dihydrate]: the normalised cell viability is 0.996 ± 0.035 (treatment time: 3 days) and 1.05 ± 0.077 (treatment time: 6 days).

In the case of `CN(N=O)C(=O)N[C@@H](C=O)[C@@H](O)[C@H](O)[C@H](O)CO` [Streptozotocin], the normalised cell viability is 1.07 ± 0.073 (treatment time: 3 days) and 1.06 ± 0.053 (treatment time: 6 days).

Turning to `CN1CCN(C(c2ccccc2)c2ccc(Cl)cc2)CC1` (stereo unspecified) [Chlorcyclizine hydrochloride], the normalised cell viability was 1.05 ± 0.17 (treatment time: 3 days) and 0.833 ± 0.098 (treatment time: 6 days).

With `O=C(N/N=C/c1ccc([N+](=O)[O-])o1)c1ccc(O)cc1` [Nifuroxazide], the normalised cell viability is, setting by setting: (treatment time: 3 days) 0.488 ± 0.023; (treatment time: 6 days) 0.437 ± 0.077.

Take `O=C1C=CC(=O)c2c1ccc1c2ccc2ccccc21` [Chrysene-1,4-quinone]: the normalised cell viability turned out to be 1.024 ± 0.0027 (treatment time: 3 days) and 1 ± 0.11 (treatment time: 6 days).

On to `Cc1ccc(/C(=C\CN2CCCC2)c2ccccn2)cc1` [Triprolidine hydrochloride], for which the normalised cell viability runs as follows: (treatment time: 3 days) 1.01 ± 0.025; (treatment time: 6 days) 1.09 ± 0.029.

Regarding `CC(C)(O/N=C(\C(=O)N[C@@H]1C(=O)N2C(C(=O)[O-])=C(C[n+]3ccccc3)CS[C@H]12)c1csc(N)n1)C(=O)O` [Ceftazidime pentahydrate], the normalised cell viability amounted to 1.03 ± 0.011 (treatment time: 3 days) and 1 ± 0.039 (treatment time: 6 days).

Regarding `Cc1c(Cl)cccc1Nc1ncccc1C(=O)O` [Clonixin Lysinate], the normalised cell viability (treatment time: 3 days) stood at 0.938 ± 0.067 and the normalised cell viability (treatment time: 6 days) came out at 0.983 ± 0.046.

With `CNCCC=C1c2ccccc2CCc2ccccc21` [Nortriptyline hydrochloride], the normalised cell viability reads like this: (treatment time: 3 days) 0.876 ± 0.045; (treatment time: 6 days) 0.904 ± 0.033.

Consider `C[C@H]1[C@H](NC(=O)/C(=N\OC(C)(C)C(=O)O)c2csc(N)n2)C(=O)N1S(=O)(=O)O` [Aztreonam], for which the normalised cell viability by setting is: (treatment time: 3 days) 0.977 ± 0.025; (treatment time: 6 days) 1.03 ± 0.043.

`CCc1c2c(nc3ccc(OC(=O)N4CCC(N5CCCCC5)CC4)cc13)-c1cc3c(c(=O)n1C2)COC(=O)[C@]3(O)CC` [Irinotecan Hydrochloride]: the normalised cell viability by setting is: (treatment time: 3 days) 0.797 ± 0.036; (treatment time: 6 days) 0.743 ± 0.038.

On to `COc1cc(C)nc(-n2nc(C)cc2OC)n1` [Epirizole], for which the normalised cell viability turned out to be 1.05 ± 0.028 (treatment time: 3 days) and 0.992 ± 0.015 (treatment time: 6 days).

On to `CS(=O)(=O)Nc1ccc([N+](=O)[O-])cc1Oc1ccccc1` [Nimesulide], for which the normalised cell viability is 1.04 ± 0.029 (treatment time: 3 days) and 1.09 ± 0.1 (treatment time: 6 days).

`CCn1cc(C(=O)O)c(=O)c2cc(F)c(N3CCNC(C)C3)c(F)c21` (stereo unspecified) [Lomefloxacin hydrochloride]: the normalised cell viability amounted to 0.99 ± 0.1 (treatment time: 3 days) and 0.982 ± 0.078 (treatment time: 6 days).
